Data: patent publication US20260061066A1, “ANTI-GRP78 ANTIBODY, IMMUNOCONJUGATE AND USES THEREOF” (UCT BIOSCIENCE CO., LTD., priority 2024, published 2026)

Legend:
[1] = target: T1, cell surface GRP78 (Homo sapiens, UniProt P11021); assay: Flow cytometry binding of anti-GRP78 antibody to cancer cell surface; format: cell-based; conditions: for binding to the cell surface by flow cytometry: antibody 30 mg/ml
T1 construct: Ovarian cancer cells were analyzed by flow cytometry for cell surface GRP78 expression; endogenous in cells; host or cells: OVCAR3, OV-90, SKOV3MT1, PL45, AsPC-1, KLM-1, MDA-MB-231, HCC1806, CEM, Raji, G-361, RPMI 8226, NCI-H929, MM.1S, THP-1, HL-60
Method: Ovarian cancer cells were analyzed by flow cytometry for cell surface GRP78 expression. The tumor cells were assessed at 4° C. 1 hr using GRP78 specific antibody, followed by Alexa Fluor 488 conjugated secondary antibodies (JACKSON IMMUNO™, 109-545-003, 115-545-003) and analysis by flow cytometry (CYTOFLEX™, BECKMAN).
Different types of cancer cells were analyzed by flow cytometry for cell surface GRP78 expression.

[2] = target: T1, cell surface GRP78; assay: Internalization of anti-GRP78 mAb in cancer cells by flow cytometry; format: cell-based; conditions: 30 μg/mL, 37° C. vs 4° C., 10-120 mins
Method: Internalization and degradation of anti-GRP78 ADC and anti-GRP78 antibody can be measured by flow cytometry. Two methods were used in this example: directly fluorescent-labeling on antibodies or the use of fluorescent-conjugated secondary antibodies to detect the primary antibodies left on the cell surface after internalization. Briefly, cancer cells were seeded in a 1×10^5 cell/well. Next, 0.5-1 mg of fluorescent-labelled anti-GRP78 antibody was added to 100 μl of target cell (cell density 1×10^6 cells/ml) in FACS buffer for 1 hour at 4° C. to enable specific binding of anti-GRP78 antibody to the cell surface targets. After incubation, the cells were washed three times with FACS buffer to remove unbound antibody. The cells were then incubated at 37° C. with 5% CO2 for antibody internalization. […] However, in some embodiments of this invention, […] was internalized into Ovarian cancer cells (OVCAR3) (FIG. 2A), melanoma cells (G-361) (FIG. 2B), and myeloma cells (RPMI 8226) (FIG. 2C) during 37° C. incubation confirmed by flow cytometry. […] (30 μg/mL) incubated at 37° C. to allow the antibodies to internalize, while incubated at 4° C. to prevent the internalization of the antibody. The samples were collected at various time points (10, 30, 60, 90 and 120 mins) and determined by comparing the decrease cell surface-bound antibody of samples incubated at 37° C. to control samples incubated at 4° C.

[3] = tested on: THP-1 cells; assay: In-vitro cytotoxicity, CCK-8 assay; format: cell-based, human
Method: (§1) In-Vitro cytotoxicity assays of GID10-ADC, DM1 and GID10 on HL-60, HCC1806, MDA-MB-231, Raji, RPMI8226, NCI-H929, MM.1S, G-361, THP-1, PL45, AsPC-1, KLM-1, OV90, 4Tl and EL-4 cells. Cell viability was measured after 48 hours using Cell Counting Kit-8 (CCK-8) assay (DOJINDO™, Cat. No. CK04-13), as shown in Table 3. For example, on Day 0, THP-1 cells were seeded at […] cells per well in a 96-well plate and treated with diluted test compounds. The cells were incubated for 48 hours at 37° C. with 5% CO2. On Day 2, 20 μl of CCK-8 was added to each well, followed by incubation for 1-4 hours. Absorbance at 450 nm was then measured to assess cell viability and the impact of the test compounds. […] Cell viability was measured after 48 hours using the Cell Counting Kit-8 (CCK-8) assay (DOJINDO™, Cat. No. CK04-13). IC50 (M) was calculated to determine the efficacy of the antibody, DM1, and ADC on the various cancer cell lines.
(§2) In-Vitro cytotoxicity assays of Dxd-conjugated ADC and free payload Dxd on THP-1, NCI-N87, Capan-1, and KLM-1 cells. Cell viability was measured after 48 hours using Cell Counting Kit-8 (CCK-8) assay (DOJINDO™, Cat. No. CK04-13), as shown in Table 4. […] Absorbance at 450 nm was then measured to assess cell viability and the impact of the test compounds. […] Cell viability was measured after 48 hours using the Cell Counting Kit-8 (CCK-8) assay (DOJINDO™, Cat. No. CK04-13). […]

[4] = tested on: KLM-1; assay: In-vitro cytotoxicity, CCK-8 assay; format: cell-based; conditions: KLM-1 cells
Method: as §1, §2

T1 sequence (P11021 19-654): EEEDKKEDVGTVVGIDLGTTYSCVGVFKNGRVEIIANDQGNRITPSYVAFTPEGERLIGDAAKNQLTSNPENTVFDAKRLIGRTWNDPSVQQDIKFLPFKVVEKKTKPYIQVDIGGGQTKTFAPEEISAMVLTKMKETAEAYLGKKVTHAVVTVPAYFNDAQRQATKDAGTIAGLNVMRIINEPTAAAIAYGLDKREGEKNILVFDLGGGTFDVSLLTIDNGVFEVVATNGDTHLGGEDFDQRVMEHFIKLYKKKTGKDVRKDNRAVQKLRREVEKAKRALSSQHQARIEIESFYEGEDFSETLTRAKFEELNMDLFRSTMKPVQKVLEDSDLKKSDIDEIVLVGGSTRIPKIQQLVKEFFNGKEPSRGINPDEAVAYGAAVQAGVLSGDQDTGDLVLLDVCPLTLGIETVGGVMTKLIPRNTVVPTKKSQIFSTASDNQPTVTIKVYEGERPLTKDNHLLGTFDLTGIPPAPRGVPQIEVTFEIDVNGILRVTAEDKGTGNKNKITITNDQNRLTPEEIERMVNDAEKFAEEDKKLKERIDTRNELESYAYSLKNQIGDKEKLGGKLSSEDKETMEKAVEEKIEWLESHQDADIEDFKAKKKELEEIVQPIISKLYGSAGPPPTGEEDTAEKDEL

B1: G1D10 (antibody)
heavy: EVQLVESGGGLVQPGGSLRLSCAASGFTFSNYAMNWVRQAPGKGLEWVSIIYPDSSATYYADSVKGRFTISRDNSKNTLYLQMNSLRAEDTAVYYCARYHFRWGAMDYWGQGTLVTVSS[sequence of human IgG1 constant region omitted]
light: DIQMTQSPSSLSASVGDRVTITCRASQGGSRNLNWYQQKPGKAPKLLIYKNSNLQSGVPSRFSGSGSGTDFTLTISSLQPEDFATYYCQQYGSLPWTFGQGTKVEIKRTVAAPSVFIFPPSDEQLKSGTASVVCLLNNFYPREAKVQWKVDNALQSGNSQESVTEQDSKDSTYSLSSTLTLSKADYEKHKVYACEVTHQGLSSPVTKSFNRGEC
With B1 the “binding to the cell surface by flow cytometry” value (“binding … by flow cytometry” below) ([1]; AsPC-1 (pancreatic cancer)) was 22.3%, the “binding … by flow cytometry” value ([1]; CEM (T-ALL)) was 23.6% and the “binding … by flow cytometry” value ([1]; G361 (melanoma)) was 63.8%. The “binding … by flow cytometry” value ([1]; HCC1806 (TNBC)) was 50.3%, the “binding … by flow cytometry” value ([1]; HL-60 (AML)) was 98.4% and the “binding … by flow cytometry” value ([1]; KLM-1 (pancreatic cancer)) was 43.9%. The “binding … by flow cytometry” value ([1]; MDA-MB-231 (TNBC)) was 27.3%, the “binding … by flow cytometry” value ([1]; MM.1S (multiple myeloma)) was 40.5% and the “binding … by flow cytometry” value ([1]; NCI-H929 (multiple myeloma)) was 46.5%. For the same molecule, the “binding … by flow cytometry” value ([1]; OV90 (ovarian cancer)) was 19.6%, the “binding … by flow cytometry” value ([1]; OVCAR3 (ovarian cancer), 4° C. 1 hr) was 23.7% and the “binding to the cell surface, in words” value ([1]; OVCAR3, 30 μg/mL, binding ability in general) was “at a higher level than the conventional anti-GRP78 antibody C38”. The “binding … by flow cytometry” value ([1]; PL45 (pancreatic cancer)) was 21.3%, the “binding … by flow cytometry” value ([1]; RPMI8226 (multiple myeloma)) was 74% and the “binding … by flow cytometry” value ([1]; Raji (DLBCL)) was 24.5%. The “binding … by flow cytometry” value ([1]; SKOV3MT1 (ovarian cancer)) was 59.1%, the “binding … by flow cytometry” value ([1]; THP-1 (AML)) was 100% and the internalization of antibody ([2]; G-361 melanoma cells) was “internalized”. The internalization of antibody ([2]; OVCAR3 ovarian cancer cells) was “internalized”, the internalization of antibody ([2]; RPMI 8226 myeloma cells) was “internalized” and the “cell killing by antibody alone” value [3] was “not killed”. For the same molecule, the “cell killing by antibody alone” value [4] was “not killed”.
